In article PMC6919601, “Identification of Plasmodium dipeptidyl aminopeptidase allosteric inhibitors by high throughput screening” (PLoS ONE, 2019):
The campaign covered roughly 110,000 compounds. About 230 (0.21%) showed an effect of 50% or more. Some of the results follow.

Target: DPAP1 (Plasmodium falciparum, UniProt Q8IIJ9)
Test: primary screen, percent inhibition; read by cleavage of a fluorogenic dipeptide substrate; higher = more effect of the substance
Set-up: species or system P. falciparum D10 trophozoite lysates; single well
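Also: 30 min substrate incubation versus DMSO and 10 µM JCP410 controls.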

Sequence of DPAP1 (Q8IIJ9 whole entry, looked up): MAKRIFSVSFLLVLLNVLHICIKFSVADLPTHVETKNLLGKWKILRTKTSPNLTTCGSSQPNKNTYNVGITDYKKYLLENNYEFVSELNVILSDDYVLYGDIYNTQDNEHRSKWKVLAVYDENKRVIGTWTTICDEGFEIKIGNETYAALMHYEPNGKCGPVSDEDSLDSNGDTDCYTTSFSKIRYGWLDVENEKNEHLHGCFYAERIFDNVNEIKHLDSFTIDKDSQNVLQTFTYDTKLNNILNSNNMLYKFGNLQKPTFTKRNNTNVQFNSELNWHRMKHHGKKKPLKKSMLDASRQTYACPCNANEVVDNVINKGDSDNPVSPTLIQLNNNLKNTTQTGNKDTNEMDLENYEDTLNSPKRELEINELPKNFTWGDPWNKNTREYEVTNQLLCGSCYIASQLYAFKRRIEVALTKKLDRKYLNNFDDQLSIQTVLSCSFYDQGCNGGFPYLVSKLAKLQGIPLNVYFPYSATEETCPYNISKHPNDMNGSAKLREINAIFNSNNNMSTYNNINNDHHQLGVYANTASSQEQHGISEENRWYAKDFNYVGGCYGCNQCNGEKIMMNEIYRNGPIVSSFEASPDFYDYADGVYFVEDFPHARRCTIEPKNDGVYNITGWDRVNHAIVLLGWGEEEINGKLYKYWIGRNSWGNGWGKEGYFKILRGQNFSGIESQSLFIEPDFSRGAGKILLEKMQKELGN

Compound	% Inhibition @ 10 uM
COc1ccc(OC)c(N2C(=O)CC(Cc3ccc(C)cc3)C2=O)c1 (stereo not drawn)	3.09%
N#Cc1c2ncnc(O)c2c2n1CCC2	-1.69%
O=C(Nc1nc2ccc(Br)cc2s1)c1c(O)nc2c(c1O)CCCC2	4.35%
Cc1nnc(SCC(=O)N(C)C2CCCCC2)s1	2.29%
Cc1cc2oc(C(=O)N3CCN(C)CC3)c(C)c2cc1C	-1.36%
O=C(Cc1noc2ccccc12)N1CCCCC1c1cccnc1 (stereo not drawn)	10.8%
COc1ccc(C2=NN(S(C)(=O)=O)C(c3cccs3)C2)cc1 (stereo not drawn)	0.381%
COc1cccc(C=C2C(=O)c3ccccc3C2=O)c1OC(C)C	-1.6%
COCCNC(=O)Cn1nnc2sc3c(c2c1=O)CCCC3	0.758%
CC(C)C(NC(=O)c1ccc(C23CC4CC(CC(C4)C2)C3)cc1)C(=O)NCc1cccnc1 (stereo not drawn)	-1.73%
COc1ccccc1NC1=C(Cl)C(=O)N(c2ccc(C)cc2C)C1=O	-0.413%
Cc1c(C(=O)Nc2ccccc2)cccc1[N+](=O)[O-]	-2.6%
O=C(COc1ccc(Cl)cc1Cl)Nc1cccc(Cl)c1	-7.49%
O=C(c1ccc(CNS(=O)(=O)c2cccc(Cl)c2)cc1)N1CCN(c2ccccc2F)CC1	-3.41%
O=C(O)c1ccccc1C(=O)Nc1ccc(S(=O)(=O)N2CCCC2)cc1	-3.85%
CC1CC(N(C(=O)C2CC2)c2ccccc2)c2ccccc2N1C(=O)C1CC1 (stereo not drawn)	-1.36%
O=C1C(Cl)=C(Nc2ccc(F)cc2)C(=O)N1Cc1ccccc1	-0.305%
C=CCn1c(Oc2ccc(C=O)cc2OCC)nc2c1c(=O)n(C)c(=O)n2C	0.708%
CC(=O)NC1=NC(=O)/C(=C/c2ccccc2)N1C	-3.26%
Cc1nnc(C)c2c(C)n(NC(=O)c3ccncc3)c(C)c12	0.884%
Cc1ccccc1Cn1c(CCNC(=O)c2ccco2)nc2ccccc21	0.366%
FC(F)(F)c1nc(NCc2cccnc2)nc2c1CCCCC2	-5.67%
COC(=O)c1conc1-c1cccs1	-2.48%
COc1ccccc1CN1C(=O)CN(C2CCCCC2)C(=O)C1c1ccc(OC(C)C)c(OC)c1 (stereo not drawn)	2.9%
Cc1ccc(CNC(=O)Cc2c(C)c3ccc(O)c(C)c3oc2=O)cc1	-2.57%
CCO/C(O)=C1/C(C)=Nc2ncnn2C1c1cccc(OC)c1OC (stereo not drawn)	-5.19%

Compound	% Inhibition @ 10 uM
O=C(/C=C/c1ccccc1)NCCOC(=O)Nc1ccccc1	-1.96%
CCSc1nc(O)c(CC)c(=O)n1-c1ccccc1	-0.833%
COc1ccc(CC(=O)Nc2c(C)cccc2C)cc1	-2.03%
Cc1ccc(-c2ccc(S(=O)(=O)NCC3CCCO3)cc2)cc1 (stereo not drawn)	-7.83%
COCCCNC(=O)c1cc(Sc2ccc(C)cc2)nc2ccccc12	-2.9%
CS(=O)(=O)N(CC(=O)Nc1cccc(Br)c1)Cc1ccccc1	3.57%
COc1cc(N)c2nc(OCc3cccc(Cl)c3)ccc2c1	1.52%
COc1cccc2c1OC1(C)CC2C(S(=O)(=O)c2ccc(Cl)cc2)C(=O)N1C (stereo not drawn)	-2.45%
Cc1ccc(S(=O)(=O)N(CC(=O)N2CCCCC2)C2CCCCC2)cc1	-5.58%
CCc1ccc(CNC(=O)c2ccc3c(c2)ncn3C2CCCC2)cc1	-6.88%
CCNc1c(NC(=O)c2ccc(OCC)c(OCC)c2)c(=O)oc2ccccc12	-2.23%
COc1ccc(-c2nnc(SCC(=O)NC(C)c3ccccc3)o2)cc1 (stereo not drawn)	3.94%
CCc1ccccc1NC(=O)c1ccc([N+](=O)[O-])cc1	-6.82%
CCOc1ccccc1/C=C1\N=C(c2ccc(C)cc2)OC1=O	0.434%
O=C(NCCCN1CCC(Cc2ccccc2)CC1)C1CCC(=O)N1Cc1ccccc1Cl (stereo not drawn)	3.24%
O=C(Cn1nc(-c2ccccc2)ccc1=O)N1CCC2(CC1)OCCO2	-4.83%
COC(=O)/C(C#N)=C\c1ccc(OC)cc1	1.83%
Cc1nc(Nc2ccc(S(N)(=O)=O)cc2)oc1C	5.04%
COc1ccc(Cc2nnc(NC(=O)Cc3ccc(C)cc3)s2)cc1	-5.08%
CCC1CCCN1Cn1cnc2c3cc(C)ccc3nc-2c1O (stereo not drawn)	4.8%
Oc1ccc(-c2cnc3ccccc3n2)cc1	3.58%
CC[N+]1=C(/C=C/N(C)C)c2cccc3cccc1c23	1.67%
Cc1cc(O)c(NC(=O)COc2ccccc2)cc1C	-9.56%
Cc1cc(=O)n2nc(N3CCCC3C(=O)NCCCc3ccccc3)sc2n1 (stereo not drawn)	-2%
COc1ccc(C(=O)c2sc(Nc3ccccc3F)c(C#N)c2N)cc1	-4.76%
Cc1cccc(C(=O)NCc2nnc(S)n2-c2cccc(C(F)(F)F)c2)c1	3.34%

Compound	% Inhibition @ 10 uM
Cc1nc(Nc2nc(O)c3c(n2)CCC3)nc2ccccc12	2.36%
CCCOC(=O)c1ccc(NC(=O)c2ccc(Br)cc2)cc1	-3.04%
O=C(CSc1nc2ccc(NC(=O)c3ccccc3C(=O)O)cc2s1)NCc1ccccc1	0.385%
CC(=O)C12CC3CC(C1)CC(C(C)=O)(C3)C2	-5.32%
CCc1c(C)nc2c(C#N)c(C)nn2c1O	4.74%
Cc1nn(CCCC(=O)NC(C)CCc2ccccc2)c(=O)c2nccn12 (stereo not drawn)	-1.6%
COc1ccccc1CN(C1CCN(C)CC1)S(=O)(=O)c1cc(-c2cc(C)no2)ccc1C	-1.05%
C=CCOc1ncc2c(c1C#N)N(Cc1ccccc1)CC2	-1.52%
Cc1ccc(-n2nc3c(=O)n(CCCC(=O)NC(C)CCc4ccccc4)nc(C)c3c2C)cc1 (stereo not drawn)	-5.54%
CN(C)CC1CSCCC1(O)c1cccc(Cl)c1 (stereo not drawn)	-4.54%
COC(=O)c1cn(C(=O)c2ccc(OC)c(OC)c2)c2ccccc12	-6.44%
CC1=C(C(=O)NCCCN2CCOCC2)C2(CCCCCC2)OC1=O	2.99%
COc1ccc(S(=O)(=O)c2c(C(=O)c3ccc(C)cc3)cnc3cc4c(cc23)OCO4)cc1	2.68%
O=C(CCC1CCCC1)Nc1ccc2c(c1)OCCO2	-4.05%
C=CCOc1ccccc1CN1CCC(O)CC1	-3.57%
N#CCNC(=O)[C@@H](Cc1ccccc1C(F)(F)F)NC(=O)OCc1ccccc1	-4.82%
N#C/C(=C\c1coc2ccccc2c1=O)c1nc2ccccc2[nH]1	-2.19%
CCCOc1ccccc1/N=C(\N)Nc1nc(C)cc(C)n1	-3.03%
O=C(O)c1cccc(NC(=O)c2cccnc2C(=O)O)c1	-3.85%
CCc1ccc(C2C(C(=O)c3ccc4c(c3)CC(C)O4)=C(O)C(=O)N2CC2CCCO2)cc1 (stereo not drawn)	1.92%
CC(C)NS(=O)(=O)c1ccc(OCC(=O)N2CCC(Cc3ccccc3)CC2)cc1	2.32%
CCOc1cc2c(cc1OCC)C(c1cc(OC)ccc1OC)NCC2 (stereo not drawn)	0.475%
N#CCNC(=O)[C@H](Cc1cc(Cl)c(O)c(Cl)c1)NC(=O)c1cc(F)c(F)cc1F	-3.04%
C/C(=N\OCC(=O)Nc1sc2c(c1C#N)CCCC2)c1ccc(Br)cc1	12%
CC(C)OCCCNC(=O)c1cc2ccc3cccnc3c2[nH]1	-3.09%
CCOC(=O)C1=C(C)N(c2ccccc2)C(=O)C1	2.94%

Compound	% Inhibition @ 10 uM
CCOP(=O)(OCC)C1(C(=O)O)CCCC1	-0.546%
Cc1cc(C)c(C(=O)/C(=C/c2cccc3ccccc23)c2ccccc2)c(O)n1	-1.96%
O=C(NC1CCCc2ccccc21)C1CCCN(c2ncnc3onc(-c4ccc(F)cc4)c23)C1 (stereo not drawn)	7.46%
c1ccc(C2OCCN3CCCCC23)cc1 (stereo not drawn)	-0.105%
COc1ccc(NC(=O)CN(c2cccc(OC)c2)S(C)(=O)=O)cc1	-13.3%
COc1ccc(OC)c(S(=O)(=O)c2ccc(Br)cc2)c1	-0.0369%
CCOCC(=O)Nc1ccc(C(=O)c2ccccc2)cc1	-4.15%
CC(=O)c1ccc(NC(=O)c2c(C)nn(-c3ccccc3)c2Cl)cc1	-0.864%
O=C1CC(N2CCCCC2)C(=O)N1c1cccc(Br)c1 (stereo not drawn)	-1.26%
Cc1cc(C)c2nc(N3CCC(C(=O)NCCN4CCOCC4)CC3)sc2c1	0.137%
Cc1ccc(C2=N/C(=C\c3cc(Br)cs3)C(=O)O2)cc1	-3.15%
O=C(Nc1ccc(Cl)cc1)c1cc(Br)ccc1NS(=O)(=O)c1ccc(Cl)c([N+](=O)[O-])c1	-1.42%
O=C(COc1ccc(Cl)cc1Cl)Nc1cccc(F)c1	4.57%
O=C(Nc1nc(-c2ccc3ccccc3c2)cs1)c1ccc(S(=O)(=O)N2CCCCC2)cc1	-3.92%
COc1ccc(C2C3=C(Nc4ncnn42)c2ccccc2OC3c2ccccc2Cl)cc1OC (stereo not drawn)	-1.62%
Cc1cc(C)cc(OCCCCCN2CCNCC2)c1	2.84%
O=C(Nc1cccc(O)c1)c1cccc(F)c1	-4.21%
Cc1ccc(-c2nnc(S)n2/N=C/c2c[nH]c3ccccc23)cc1	-0.85%
O=C1NC(=O)C(CC2CCCCC2)C(=O)N1	7.42%
Cc1ccc(-c2cc(C(=O)Nc3ccc(C(N)=O)cc3)c3ccccc3n2)o1	6.1%
CCOC(=O)c1sc2c(c1NC(=O)c1ccc3c(c1)OCCO3)CCCC2	17%
C=CCN1C(=O)/C(=C\c2sccc2C)C(C(=O)OC)=C1C	1.81%
COC(=O)C1=C(C)OC(N)=C(C#N)C1c1ccccc1OC (stereo not drawn)	-0.546%
Cc1ccc(C(=S)Nc2ccccn2)cc1	15.5%
